Measured values: the supplement of paper PMC10670038
Where a name gives a salt, the structure may show the parent alone. ± gives the standard deviation of the averaged measurements. In all, about 2,000 compounds were measured (“relative cell viability vs DMSO, compound + 0.2 uM CuET”: median about 1, lowest 2% from about 0.25 on). This is one part of the list.

System: TE10
Assay: relative cell viability vs DMSO, compound + 0.2 uM CuET (fraction); TE10 is an esophageal squamous carcinoma line; higher = less cytotoxic
Conditions: 2 µM; co-treatment: CuET (bis(diethyldithiocarbamate)copper) 0.2 uM; 48 h
Experimental: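 TE10 ESCC cells (1,000/well, 384-well plates) were treated with Selleck bioactive library compounds at 2 uM combined with 0.2 uM CuET (copper diethyldithiocarbamate) for 48 h. Viability was read by CellTiter-Glo and expressed relative to DMSO wells. Two technical replicates (A, B).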

Compound | relative cell viability
CC(C)C(=O)Oc1ccc(CO)cc1[C@H](CCN(C(C)C)C(C)C)c1ccccc1 [Fesoterodine Fumarate] | 1.04 ± 0.034
Cc1ccc(NC(=O)c2ccc(CN3CCN(C)CC3)cc2)cc1Nc1nccc(-c2cccnc2)n1 [Imatinib (STI571)] | 1.05 ± 0.1
Cc1ccc(NC(=O)c2ccc(CN3CCN(C)CC3)cc2)cc1Nc1nccc(-c2cccnc2)n1 [Imatinib Mesylate (STI571)] | 1.43 ± 0.12
COc1cc2c(cc1OC)CC(=O)N(CCCN(C)C[C@H]1Cc3cc(OC)c(OC)cc31)CC2 [Ivabradine HCl] | 1.01 ± 0.19
Cc1c(C(=O)NN2CCCCC2)nn(-c2ccc(Cl)cc2Cl)c1-c1ccc(Cl)cc1 [Rimonabant] | 0.716 ± 0.15
C[C@@H](Nc1cc(F)cc(F)c1)c1cc(C(=O)N(C)C)cc2c(=O)cc(N3CCOCC3)oc12 | 0.951 ± 0.022
COc1cc2c(c(OC)c1OC)-c1c(cc3c(c1OC)OCO3)CC(C)C(C)C2 (centres undefined) [Schisandrin B (Sch B)] | 1.15 ± 0.12
CCOC(=O)c1cnc2ccc(-c3cncc(NS(=O)(=O)c4ccccc4)c3)cn12 | 0.533 ± 0.018
COc1cc(C(=O)N2CCC(N3CCN(C)CC3)CC2)ccc1Nc1ncc2c(n1)N(C)c1ccccc1C(=O)N2C | 0.93 ± 0.068
Clc1ccc(C(Cn2ccnc2)OCc2ccsc2Cl)c(Cl)c1 (centres undefined) [Tioconazole] | 0.85 ± 0.028
CC1(C)O[C@H]2CC(=O)OC[C@]23[C@H]2CC[C@@]4(C)[C@H](c5ccoc5)OC(=O)[C@H]5O[C@]54[C@]2(C)C(=O)C[C@@H]13 [Limonin] | 1.1 ± 0.023
NC(=O)c1cccc(-c2cc(Nc3ccc(OC(F)(F)F)cc3)ncn2)c1 | 0.941 ± 0.068
CCN(CC)CCOC(=O)c1ccc(N)cc1Cl [Chloroprocaine HCl] | 1.21 ± 0.089
Cc1ccc(-c2nn(C(C)(C)C)c3ncnc(N)c23)cc1 | 0.973 ± 0.046
CCCCCCOC(=O)NC(=N)c1ccc(NCc2nc3cc(C(=O)N(CCC(=O)OCC)c4ccccn4)ccc3n2C)cc1 [Dabigatran Etexilate] | 0.8292 ± 0.0057
COc1ccc(O)cc1 [Mequinol] | 1.16 ± 0.15
NC(=O)c1cnc(N[C@@H]2CCCC[C@@H]2N)nc1Nc1cccc(-n2nccn2)c1 | 0.952 ± 0.021
NS(=O)(=O)c1cc2c(cc1Cl)NC(C(Cl)Cl)NS2(=O)=O (centres undefined) [Trichlormethiazide] | 1.01 ± 0.018
CN[C@@H]1[C@H](O)[C@H](NC)[C@H]2O[C@@]3(O)C(=O)C[C@@H](C)O[C@H]3O[C@@H]2[C@H]1O [Spectinomycin HCl] | 1.2 ± 0.029
COC(=O)C1=CO[C@@H](O[C@@H]2O[C@H](CO)[C@@H](O)[C@H](O)[C@H]2O)[C@@H]2C(CO)=CC[C@H]12 [Geniposide] | 1.05 ± 0.068
Cc1onc(-c2ccccc2Cl)c1C(=O)N[C@@H]1C(=O)N2[C@@H]1SC(C)(C)[C@@H]2C(=O)O [Cloxacillin Sodium] | 0.997 ± 0.11
COc1ccc(Cn2ccc3ccc(C(=O)NO)cc32)cc1 | 0.685 ± 0.085
C#Cc1cccc(Nc2ncnc3cc(OCCOC)c(OCCOC)cc23)c1 [Erlotinib HCl (OSI-744)] | 1.18 ± 0.1

Compound | relative cell viability
C#Cc1cccc(Nc2ncnc3cc(OCCOC)c(OCCOC)cc23)c1 [Erlotinib] | 0.996 ± 0.091
CN1CCC[C@@H]1Cc1c[nH]c2ccc(CCS(=O)(=O)c3ccccc3)cc12 [Eletriptan HBr] | 0.718 ± 0.31
COc1cc2c(Oc3ccc(NC(=O)C4(C(=O)Nc5ccc(F)cc5)CC4)cc3F)ccnc2cc1OCCCN1CCOCC1 | 0.602 ± 0.031
C[S+]([O-])c1ccc(-c2nc(-c3ccc(F)cc3)c(-c3ccncc3)[nH]2)cc1 (centres undefined) | 1.28 ± 0.015
COc1cc(N2CCC(N(C)C)CC2)ccc1Nc1ncc(Cl)c(Nc2ccccc2P(C)(C)=O)n1 | 0.858 ± 0.026
COc1ccccc1Oc1c(NS(=O)(=O)c2ccc(C(C)(C)C)cc2)nc(-c2ncccn2)nc1OCCO [Bosentan] | 1.04 ± 0.015
COc1ccccc1Oc1c(NS(=O)(=O)c2ccc(C(C)(C)C)cc2)nc(-c2ncccn2)nc1OCCO [Bosentan Hydrate] | 1.26 ± 0.23
CC1=NN(c2ccccc2)C(=O)C1 [Edaravone] | 1.37 ± 0.095
CCN(CC)CCNC(=O)c1cc(Cl)c(N)cc1OC [MetoclopraMide HCl] | 1.15 ± 0.025
CCOc1ccc2ccccc2c1C(=O)N[C@@H]1C(=O)N2[C@@H]1SC(C)(C)[C@@H]2C(=O)O [Nafcillin Sodium] | 1.14 ± 0.16
C=C1/C(=C\C=C2/CCC[C@]3(C)[C@@H]([C@H](C)CCCC(C)C)CC[C@@H]23)C[C@@H](O)C[C@@H]1O [Alfacalcidol] | 1.35 ± 0.14
CO[C@H]1/C=C\C=C(/C)C(=O)NC2=CC(=O)C(NCCN(C)C)=C(C[C@@H](C)C[C@H](OC)[C@H](O)[C@@H](C)/C=C(\C)[C@@H]1OC(N)=O)C2=O [17-DMAG (Alvespimycin) HCl] | 0.703 ± 0.081
CCC[C@@H]1C[C@@H](C(=O)N[C@@H]([C@H]2O[C@H](SC)[C@H](O)[C@@H](O)[C@H]2O)[C@H](C)Cl)N(C)C1 [Clindamycin HCl] | 1.27 ± 0.11
CCC[C@@H]1C[C@@H](C(=O)N[C@@H]([C@H]2O[C@H](SC)[C@H](O)[C@@H](O)[C@H]2O)[C@H](C)Cl)N(C)C1 [Clindamycin] | 1.39 ± 0.22
O=C(O)CCNC(=O)c1ccccc1 [Betamipron] | 1.014 ± 0.0048
O=C(N[C@H](CO)[C@H](O)c1ccc([N+](=O)[O-])cc1)C(Cl)Cl [Chloramphenicol] | 1 ± 0.015
Oc1ccc(/C=C/c2cc(O)cc(O)c2)cc1 [Resveratrol] | 0.852 ± 0.11
Cc1ncc(CCCN(C)C)cc1Nc1ncc2c(n1)-c1ccc(C(F)(F)F)cc1NC(=S)C2 | 0.937 ± 0.021
CCOC(=O)C1=C(COCCN)NC(C)=C(C(=O)OC)C1c1ccccc1Cl (centres undefined) [Amlodipine] | 1 ± 0.017
CCOC(=O)C1=C(COCCN)NC(C)=C(C(=O)OC)C1c1ccccc1Cl (centres undefined) [Amlodipine besylate (Norvasc)] | 0.948 ± 0.01
COc1ccc(C2=NC(c3ccc(Cl)cc3)C(c3ccc(Cl)cc3)N2C(=O)N2CCNC(=O)C2)c(OC(C)C)c1 (centres undefined) [Nutlin-3a] | 1.149 ± 0.0057
COc1ccc(C2=NC(c3ccc(Cl)cc3)C(c3ccc(Cl)cc3)N2C(=O)N2CCNC(=O)C2)c(OC(C)C)c1 (centres undefined) [Nutlin-3b] | 1.17 ± 0.094
CCN(CC)CCNC(=O)c1c(C)[nH]c(/C=C2\C(=O)Nc3ccc(F)cc32)c1C [Sunitinib Malate] | 1.04 ± 0.19

Compound | relative cell viability
CCN(CC)CCNC(=O)c1c(C)[nH]c(/C=C2\C(=O)Nc3ccc(F)cc32)c1C [Sunitinib] | 1.14 ± 0.057
COc1ccc(/C=C/C(=O)Nc2ccccc2C(=O)O)cc1OC [Tranilast] | 1.175 ± 0.0021
CCOc1cc2ncc(C#N)c(Nc3ccc(F)c(Cl)c3)c2cc1NC(=O)/C=C/CN(C)C [Pelitinib (EKB-569)] | 0.908 ± 0.15
Cc1c(N(C)C)c(=O)n(-c2ccccc2)n1C [Amidopyrine] | 1.31 ± 0.1
C=C1C(=O)[C@]23[C@H](O)[C@H]1CC[C@H]2[C@@]12CO[C@]3(O)[C@@H](O)[C@@H]1C(C)(C)CC[C@@H]2O [Oridonin] | 0.6312 ± 0.00067
Cc1cc(/C=C/C#N)cc(C)c1Nc1ccnc(Nc2ccc(C#N)cc2)n1 [Rilpivirine] | 1.06 ± 0.16
Cc1cc(=O)[nH]c(=S)[nH]1 [Methylthiouracil] | 1.01 ± 0.048
CC(=O)[C@H]1CC[C@H]2[C@@H]3C=CC4=CC(=O)CC[C@@]4(C)[C@@H]3CC[C@]12C [Dydrogesterone] | 1.05 ± 0.18
CC[C@]1(O)C[C@H]2CN(CCc3c([nH]c4ccccc34)[C@@](C(=O)OC)(c3cc4c(cc3OC)N(C=O)[C@H]3[C@@](O)(C(=O)OC)[C@H](OC(C)=O)[C@]5(CC)C=CCN6CC[C@]43[C@@H]65)C2)C1 [Vincristine] | 0.701 ± 0.17
Nc1nc(CC(=O)Nc2ccc(CCNC[C@H](O)c3ccccc3)cc2)cs1 [Mirabegron] | 1.17 ± 0.053
COc1ccccc1OCC(O)CO (centres undefined) [Guaifenesin] | 1.01 ± 0.095
Cc1cccc(C)c1OCC(C)N (centres undefined) [Mexiletine HCl] | 1.16 ± 0.051
CN1[C@@H]2CC[C@H]1C[C@@H](OC(=O)c1c[nH]c3ccccc13)C2 [Tropisetron] | 1.05 ± 0.0039
Cc1cc(O)c2c(c1)C(=O)c1cccc(O)c1C2=O [Chrysophanic Acid] | 0.731 ± 0.036
NC(=O)c1cn(Cc2c(F)cccc2F)nn1 [Rufinamide] | 1.26 ± 0.15
CC(C(=O)O)c1ccc(-c2ccccc2)c(F)c1 (centres undefined) [Flurbiprofen] | 1.02 ± 0.069
Cc1c(OCC(F)(F)F)ccnc1C[S@@+]([O-])c1nc2ccccc2[nH]1 [Dexlansoprazole] | 1.09 ± 0.011
CC[C@H]1OC(=O)[C@H](C)[C@@H](O[C@H]2C[C@@](C)(OC)[C@@H](O)[C@H](C)O2)[C@H](C)[C@@H](O[C@@H]2O[C@H](C)C[C@H](N(C)C)[C@H]2O)[C@](C)(O)C[C@@H](C)C(=O)[C@H](C)[C@H]2OC(=O)O[C@@]21C [Erythromycin Cyclocarbonate] | 1.19 ± 0.04
C[C@H]1O[C@@H](O[C@H]2[C@@H](O)C[C@H](O[C@H]3[C@@H](O)C[C@H](O[C@H]4CC[C@@]5(C)[C@H](CC[C@@H]6[C@@H]5C[C@@H](O)[C@]5(C)[C@@H](C7=CC(=O)OC7)CC[C@]65O)C4)O[C@@H]3C)O[C@@H]2C)C[C@H](O)[C@@H]1O [Digoxin] | 0.847 ± 0.015
O=C1c2c(O)cccc2C([C@@H]2O[C@H](CO)[C@@H](O)[C@H](O)[C@H]2O)c2cc(CO)cc(O)c21 (some centres undefined) [Aloin] | 1.1 ± 0.12
O=C(Nc1cccc(C(F)(F)F)c1)Nc1cc(S(=O)(=O)NC2CC2)ccc1-c1ccsc1 | 1.04 ± 0.11
CC(C(=O)O)c1ccc2c(c1)[nH]c1ccc(Cl)cc12 (centres undefined) [Carprofen] | 1.22 ± 0.068
C=CCc1cccc(/C=N/NC(=O)CN2CCN(Cc3ccccc3)CC2)c1O | 0.903 ± 0.21
